# Data published in paper PMC4336329 (PLoS ONE, 2015).
# The campaign covered roughly 310,000 compounds. About 14,000 (4.5%) showed an effect of 50% or more. Effects have a minus sign here. This is one part of the list.
# Target: human ether-à-go-go-related gene (hERG) potassium channel (human, UniProt Q12809)
# Assay: primary screen, population patch clamp on CHO cells stably expressing hERG
# 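Also: peak tail current of the secondary pulse compared with the same well before compound.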
# Sequence of human ether-à-go-go-related gene (hERG) potassium channel (Q12809 whole entry, looked up): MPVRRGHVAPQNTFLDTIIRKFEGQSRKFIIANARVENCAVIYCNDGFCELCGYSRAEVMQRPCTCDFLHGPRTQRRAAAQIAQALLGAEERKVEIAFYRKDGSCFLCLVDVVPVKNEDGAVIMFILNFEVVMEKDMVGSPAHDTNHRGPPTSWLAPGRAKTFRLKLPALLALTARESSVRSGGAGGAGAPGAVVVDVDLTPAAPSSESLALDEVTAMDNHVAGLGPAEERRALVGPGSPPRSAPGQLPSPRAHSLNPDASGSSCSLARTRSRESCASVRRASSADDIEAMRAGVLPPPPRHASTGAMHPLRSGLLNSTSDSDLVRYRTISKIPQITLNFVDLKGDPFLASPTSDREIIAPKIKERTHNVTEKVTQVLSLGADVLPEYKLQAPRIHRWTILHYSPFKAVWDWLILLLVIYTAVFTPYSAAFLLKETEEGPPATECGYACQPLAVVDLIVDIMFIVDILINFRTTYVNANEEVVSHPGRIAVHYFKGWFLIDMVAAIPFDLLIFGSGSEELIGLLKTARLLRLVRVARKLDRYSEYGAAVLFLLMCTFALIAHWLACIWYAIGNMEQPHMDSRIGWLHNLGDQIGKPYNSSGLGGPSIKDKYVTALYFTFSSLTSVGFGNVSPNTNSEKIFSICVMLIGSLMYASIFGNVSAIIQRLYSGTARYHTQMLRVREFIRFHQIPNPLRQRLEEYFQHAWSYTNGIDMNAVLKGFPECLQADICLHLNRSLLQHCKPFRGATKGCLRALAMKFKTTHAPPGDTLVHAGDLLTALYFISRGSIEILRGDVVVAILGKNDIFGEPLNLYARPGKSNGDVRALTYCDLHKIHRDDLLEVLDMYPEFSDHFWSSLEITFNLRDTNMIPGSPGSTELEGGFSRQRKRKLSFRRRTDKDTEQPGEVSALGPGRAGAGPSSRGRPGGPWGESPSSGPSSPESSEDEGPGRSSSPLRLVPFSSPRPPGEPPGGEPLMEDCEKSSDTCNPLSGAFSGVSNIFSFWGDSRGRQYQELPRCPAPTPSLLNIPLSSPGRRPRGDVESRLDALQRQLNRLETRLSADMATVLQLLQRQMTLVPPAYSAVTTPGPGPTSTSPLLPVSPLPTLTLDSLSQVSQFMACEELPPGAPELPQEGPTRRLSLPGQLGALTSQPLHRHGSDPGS
row,Structure (SMILES),"hERG current change (%, negative = inhibition) at 10uM"
1,Fc1cccc(CNCCc2c[nH]c3ccccc23)c1.O=C(O)C(=O)O,-7.63%
2,CCOC(=O)c1snc(-c2ccc(F)cc2)c1N,9.56%
3,CC1CCCCC1NC(=O)CSc1nnc(COc2ccc(Cl)cc2)o1 (centres unmarked),0.225%
4,O=[N+]([O-])c1ccc2c(c1)nnn2-c1ccccc1,14.3%
5,CCCCn1c(SCC(=O)N2CCOCC2)nnc1-c1cccs1,-1.27%
6,O=C(O)C(=O)O.c1cc2c(cc1CCNC1CCCCCC1)OCO2,-17.6%
7,Cc1ccccc1NC(=O)COC(=O)CCc1nc2ccccc2c(=O)[nH]1,-3.53%
8,COc1cc(/C=N/NC(N)=S)ccc1OCC(=O)Nc1ccc(C)c(C)c1,-11.4%
9,Cc1ccc(C)c(Oc2ccc(S(=O)(=O)N3CCN(C)CC3)cn2)c1,-4.86%
10,CN(C)CCCNC(=S)N(CCN(C)C)Cc1cc2cc3c(cc2[nH]c1=O)OCCO3,13.9%
11,CCS(=O)(=O)c1nc(S(=O)(=O)c2ccc(C)cc2)c(NCCN2CCOCC2)s1,-9.86%
12,O=C(O)C1CCCCC1C(=O)Nc1ccc(Cl)cc1Cl (centres unmarked),-2.61%
13,COCCN(Cc1cccs1)S(=O)(=O)c1csc(C(N)=O)c1,-3.88%
14,CC(CC(=O)O)NCC1COc2ccccc2O1 (centres unmarked),18.5%
15,NCC(O)COCCC12CC3CC(CC(C3)C1)C2 (centres unmarked),-1.48%
16,COC(=O)c1ccccc1C(=O)N1CCOCCN(C(=O)c2ccccc2C(=O)OC)CCOCC1,0.0748%
17,Cc1cnc(C(=O)Nc2cc(S(=O)(=O)N3CCOCC3)ccc2N2CCN(C)CC2)cn1,-18.6%
18,Br.Cc1ccc(C2Cc3cc(O)c(O)cc3CN2)cc1 (centres unmarked),11%
19,CCOc1ccc2nc(NCCNS(=O)(=O)c3ccccc3)c(C#N)cc2c1,8.37%
20,CC(C)(NC(=O)N1CCCC1)c1cccc(C(C)(C)NC(=O)N2CCCC2)c1,8.2%
21,CC(C)(C)c1ccc(C(=O)Nc2cccc(C(=O)N3CCOCC3)c2)cc1,-47.4%
22,O=C(COC(=O)c1cccc(Cl)c1)NC1CCCCCCC1,0.597%
23,Cc1cccc(CNC(=O)CCCn2nc(C)c3c(C)n(-c4ccccc4)nc3c2=O)c1,-16.4%

row,Structure (SMILES),"hERG current change (%, negative = inhibition) at 10uM"
1,CN(CCc1ccccn1)C1CCCN(S(=O)(=O)c2ccccc2Cl)C1 (centres unmarked),-46.5%
2,CCCCN(Cc1cc2cc(C)ccc2[nH]c1=O)C(=O)c1ccccn1,1.23%
3,Cc1sc2nc(-c3ccccc3)[nH]c(=O)c2c1-c1ccccc1,9.43%
4,CCOC(=O)c1ccccc1-c1csc(N)n1,27.1%
5,CN(Cc1cccs1)C(=O)Cc1c[nH]c2ccccc12,-2.98%
6,O=S(=O)(c1ccccc1)c1nc(-c2ccco2)oc1N1CCCCC1,-37.1%
7,CCCN(CC(=O)Nc1ccccc1C)C(=O)c1cn2ccccc2n1,0.435%
8,CC(C)C(C)(C#N)NC(=O)CSc1nc2scc(-c3ccco3)c2c(=O)n1-c1ccccc1 (centres unmarked),3.05%
9,CCc1noc(C)c1C(=O)OCC(=O)c1ccccc1OC,-9.82%
10,Cc1cc(C)nc(SCC(=O)Oc2ccc3oc(=O)cc(C)c3c2)n1,-4.65%
11,N#C/C(=C\c1ccncc1)c1ccccn1,15%
12,CCOP(=O)(Cc1ccc(C(=O)CC)o1)OCC,12.9%
13,Cc1ccc(C)c2[nH]c(=O)c(CCNC(=O)c3cc4ccccc4o3)cc12,-0.302%
14,COc1ccc(NC(=O)CNC(=O)Cc2ccccc2)cc1OC,13.7%
15,COC(=O)c1cc(OC)c(OC)cc1NC(=O)CSc1ccc(C)cc1,0.827%
16,C=C(C)CNC(=S)Nc1sc2c(c1C(=O)OCC)CC(C)(C)OC2,28.6%
17,CCCN(CC(=O)Nc1ccccc1C)C(=O)C1CC(=O)N(c2ccc(CC)cc2)C1 (centres unmarked),-40.5%
18,S=c1nc(C2CCCCC2)n(-c2ccccc2)[nH]1,15.6%
19,COc1ccc(CN=C2NN=C(c3cccc(OC)c3)CS2)cc1,-38.7%
20,COc1ccc(CCn2c(-c3cccc([N+](=O)[O-])c3)nc3nc4ccccc4nc32)cc1OC,5.13%
21,Cc1cc(C)c2nc(N3CCC(C(=O)NCCCN4CCCC4=O)CC3)sc2c1,-25.5%
22,CCOC(=O)c1csc(-c2sccc2Br)n1,-9.67%
23,COc1ccc(OC)c2sc(Cl)nc12,-3.41%

row,Structure (SMILES),"hERG current change (%, negative = inhibition) at 10uM"
1,Cc1ccccc1-n1nc2c(c1NC(=O)c1cccs1)CS(=O)(=O)C2,-5.08%
2,O=C1C(Cc2ccc(O)cc2)NC(=S)N1c1ccccc1 (centres unmarked),-3.5%
3,O=S(=O)(NCc1csc(-c2cccnc2)n1)c1ccc(F)cc1,16.2%
4,Cc1ccc(NC(=O)c2ccc(OCc3c(C)noc3C)cc2)nc1,-8.97%
5,CC(C)NC(=O)C12CC3CC(C1)CC(C(=O)NC(C)C)(C3)C2,-16.8%
6,CC(C)Cn1c(C(C)C)nc([N+](=O)[O-])c1S(=O)(=O)c1ccc(F)cc1,-15.4%
7,Nn1c(Cc2ccccc2)n[nH]c1=S,8.55%
8,O=C1CSC(=Nc2ccccc2Cl)N1,3.55%
9,COc1ccc(COC(=O)c2sc3nc4n(c(=O)c3c2C)CCC4)cc1,-4.72%
10,Cc1ccccc1CN1CCNC(=O)C1CC(=O)NCCN1CCCCC1=O (centres unmarked),17.7%
11,Cc1cccc(N2C(=O)C3CCC(c4ccccc4)CC3C2=O)c1 (centres unmarked),-9.67%
12,O=C(Nc1nc2ccccc2[nH]1)C1CCCC1,3.49%
13,COC(=O)c1ccc(CC(=O)c2ccc(O)cc2O)o1,13.1%
14,C#Cc1cccc(C(=O)N2CCCC(CCC(=O)NCc3ccccc3F)C2)c1 (centres unmarked),5.59%
15,CC1Cc2ccccc2N1C(=O)CSc1nncs1 (centres unmarked),6.41%
16,Cc1c(C(=O)O)oc2ccc(S(=O)(=O)N3CCCCC3C(=O)O)cc12 (centres unmarked),4.6%
17,CCCCn1c(N)c(N(CC(C)C)C(=O)c2ccc(C)o2)c(=O)[nH]c1=O,14.7%
18,ClC(Cl)(Cl)c1nc(N/N=C/c2ccncc2)c2ccccc2n1,33.2%
19,COCCCNc1ncnc2c1nc1n2CCCC1,18.6%
20,CNC(=O)c1nn(-c2ccc(C)cc2)ccc1=O,3.71%
21,c1ccc(Nc2nc(-c3ccncc3)cs2)nc1,-2.23%
22,O=C(NCc1ccccc1)C1=C[C@@H](c2ccc(C(F)(F)F)cc2)C[C@@H](OCc2ccc(CO)cc2)O1,-5.36%
23,CCC1CCCCN1CCNC(=O)c1[nH]c(C)c(C(C)=O)c1C (centres unmarked),1.47%

row,Structure (SMILES),"hERG current change (%, negative = inhibition) at 10uM"
1,C=CCN1C(=O)C(Cc2cccc(C)c2)SC1=Nc1ccc(C(=O)O)cc1 (centres unmarked),-14.4%
2,CCn1nnc(NC(=O)C(C)(c2ccccc2)c2ccccc2)n1,-10.4%
3,Cc1cc(C)c(NC(=S)N(CCCN2CCOCC2)Cc2cccnc2)c(C)c1,-0.52%
4,Cc1ccccc1-c1nnc(CN2CCC(C)CC2)o1.Cl,-6.6%
5,Cc1cccc(C)c1OCCNC(=O)OCc1ccccc1,-6.74%
6,CCS(=O)(=O)c1nc(S(=O)(=O)c2ccc(C)cc2)c(NCCCN(C)C)s1,-6.03%
7,Cc1ccc(-c2nc3ncccn3c2NC(=O)C2CC2)cc1,13.9%
8,CCOC(=O)C(NC(=O)c1ccc(OC)cc1)(OCC1(CC)COC1)C(F)(F)F (centres unmarked),9.1%
9,CC1CC(C)CN(C(=O)c2ccc3c(c2)N(Cc2ccccc2)CCS3)C1 (centres unmarked),-3.05%
10,COc1ccc(/C(C)=N/NC(=O)CNC(=O)c2cccnc2)cc1OC,18.2%
11,C=CCn1c(C)cc(C(=O)CSc2nnc(C3CC3)n2C2CC2)c1C,-5.39%
12,CO/C([O-])=N/c1c[n+](-c2ccc(Cl)cc2)no1,3.67%
13,Cc1ccc(-c2nnc(SCC(=O)Nc3nc4c(s3)CCCC4)n2C)cc1,6.99%
14,O=C(CN(CC1CCCO1)C(=O)CCC(=O)Nc1ccccn1)NCC1CCCO1 (centres unmarked),13.8%
15,O=S1(=O)N(CCN2CC=C(c3c[nH]c4cc(F)ccc34)CC2)c2cccc3c2N1CCC3,-21.4%
16,COc1cc(CC(=O)Nc2sc3c(c2C(N)=O)CCCC3)cc(OC)c1OC,7.83%
17,COc1ccc(NC(=O)COc2coc(CN3CCc4ccccc43)cc2=O)cc1,2.74%
18,COc1ccc(C2(c3ccc(OC)cc3)NC(=O)N(CC(=O)N(C)C3CCC(C)CC3)C2=O)cc1 (centres unmarked),-18.9%
19,CC1(C)CC(=O)C=C(Nc2ccc(Cl)cc2)C1,5.47%
20,CCCOc1ccc(NC(=O)CC2C(=O)N(CC)C(=S)N2Cc2cccs2)cc1 (centres unmarked),2.79%
21,Cc1sc2ncnc(NCc3cccs3)c2c1C,-61.7%
22,COc1ccc(/C(O)=C/C(=O)C(=O)NNC(=O)c2ccccc2)cc1,-2.7%
23,Cc1ccc(-c2cc(C(=O)n3cnc4ccccc43)c3ccccc3n2)cc1C,7.36%
